From patent US12286661B2, “Methods for making high intensity sweeteners” (Firmenich Incorporated, priority 2018, dated 2025)

Tested on: cucurbitadienol synthase activity
Experiment: Cucurbitadienol synthase activities of fusion proteins in yeast strain with oxidosqualene boost, LCMS
Type: cell-based, S. cerevisiae
Conditions: average % activities over the average activities of the parent enzyme (Cucumis melo cucurbitadienol synthase)
Outline: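 Codon-optimized Cucumis melo cucurbitadienol synthase with N- or C-terminal fusion peptides, expressed in an oxidosqualene-boosted yeast strain. Product measured by LCMS (C4 column, positive ESI SIM at 427 and 409) relative to internal standard; activity scored as average % of parent enzyme (n=8).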

B1: SEQ ID NO 862: fusion protein having cucurbitadienol synthase activity (protein)
chain: MWRLKVGKESVGEKEEKWIKSISNHLGRQVWEFCSGENENDDDEAIAVANNSASKFENARNHFRNNRFHRKQSSDLFLAIQCEKEIIRNGAKNEGTTKVKEGEDVKKEAVKNTLERALSFYSAVQTSDGNWASDLGGPMFLLPGLVIALYVTGVLNSVLSKHHRQEMCRYIYNHQNEDGGWGLHIEGSSTMFGSALNYVALRLLGEAADGGEHGAMTKARSWILERGGATAITSWGKLWLSVLGVYEWSGNNPLPPEFWLLPYSLPFHPGRMWCHCRMVYLPMSYLYGKRFVGPITPIVLSLRKELYTIPYHEIDWNRSRNTCAKEDLYYPHPKMQDILWGSIYHVYEPLFSGWPGKRLREKAMKIAMEHIHYEDENSRYICLGPVNKVLNMLCCWVEDPYSDAFKFHLQRIPDYLWLAEDGMRMQGYNGSQLWDTAFSIQAIISTKLIDTFGPTLRKAHHFVKHSQIQEDCPGDPNVWFRHIHKGAWPFSTRDHGWLISDCTAEGLKASLMLSKLPSKIVGEPLEKNRLCDAVNVLLSLQNENGGFASYELTRSYPWLELINPAETFGDIVIDYSYVECTSATMEALALFKKLHPGHRTKEIDAAIAKAANFLENMQKTDGSWYGCWGVCFTYAGWFGIKGLVAAGRTYNNCVAIRKACNFLLSKELPGGGWGESYLSCQNKVYTNLEGNKPHLVNTAWVMMALIEAGQGERDPAPLHRAARLLINSQLESGDFPQQEIMGVFNKNCMITYAAYRNIFPIWALGEYSHRVLDMGSAAPGSGSGSGMSRLPLKQFLADNPKKVLVLDGGQGTELENRGIKVANPVWSTIPFISESFWSDESSANRKIVKEMFNDFLNAGAEILMTTTYQTSYKSVSENTPIRTLSEYNNLLNRIVDFSRNCIGEDKYLIGCIGPWGAHICREFTGDYGAEPENIDFYQYFKPQLENFNKNDKLDLIGFETIPNIHELKAILSWDESILSRPFYIGLSVHEHGVLRDGTTMEEIAQVIKDLGDKINPNFSFLGINCVSFNQSPDILESLHQALPNMALLAYPNSGEVYDTEKKIWLPNSDKLNSWDTVVKQYISSGARIIGGCCRTSPKDIQEISAAVKKYT
modifications: SS4d-C7 Full Gene AA seq
Activity (as compared to the parent): 102%
